Measurements from PubChem BioAssay AID485297 (National Center for Advancing Translational Sciences (NCATS), 2010).
The campaign covered roughly 320,000 compounds. About 9,100 (2.8%) were called active. The shares of active, inactive and inconclusive entries below differ from those in the screen. The call rests on the fitted dose curve; in most records, active means well fitted activation curve with a large enough effect; inconclusive means small, poorly fitted or top-dose-only effect; inactive means no such curve, though single readings can be large or run the other way. A potency beside an inconclusive call is a rough fit, not a confirmed value.

Test: qHTS Assay for Rab9 Promoter Activators; further: nearly all actives have a fitted effect of over 60% in size; on activation, negative = inhibition: % of control where 0% means no effect
Settings: Huh7 Rab9 promoter-luciferase reporter, luminescence, 24 h; series mostly up to 9.22 µM; activation, negative = inhibition: at the top concentration
Method in brief: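 Luminescence from Amplite-detected luciferase (10 minutes, ambient) reports Rab9 promoter activation. Before that, stable Rab9-luciferase Huh7 cells (1500/well, reduced-serum OP-MEM I plus 10% FBS) were exposed to compound for 24 hours at 37C.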
Potency means the concentration at half of the fitted maximal effect; tags describe the fitted curve by direction and shape.

Potency, active:
Cc1ccc(N2C(=O)c3ccc(N)cc3C2=O)cc1C 3.98 µM, Nc1c(-c2ccc(Cl)cc2)cnc2c(-c3ccc(F)cc3)cnn12 0.501 µM, CCn1c(C)cc(/C=C2/NC(=O)N(c3ccccc3)C2=O)c1C 1.41 µM, O=C(N=Nc1c(O)[nH]c2ccccc12)c1ccc2c(c1)OCO2 0.562 µM, COCc1nnc(NC(=O)c2ccc3c(c2)OCO3)s1 2.82 µM, O=C1c2ccccc2CN1CCSC(=S)N1CCSCC1 3.16 µM

Potency, inconclusive:
COc1ccc(C(=O)Nc2ccc3ccccc3c2)cc1 0.0891 µM [activator, full curve, poor fit], COc1ccc(NC(=O)Nc2ccc(C(C)C)cc2)cc1 5.01 µM [activator, partial curve, poor fit], Cc1cc(NC(=O)c2ccc(Cl)cc2)cc(C)c1OCC(=O)N1CCOCC1 3.55 µM [activator, partial curve], Cc1ccc(SCc2cn3c(C)cc(C)nc3n2)cc1 2.82 µM [activator, partial curve], Cc1ccc(NC(=S)Nc2cccc(-c3n[nH]c(=S)o3)c2)cc1 1.78 µM [activator, partial curve], CCCOc1ccc(C(=O)Nc2ccc(C)cc2[N+](=O)[O-])cc1 2.51 µM [activator, partial curve], Cc1nn(C)c(C(=O)NNC(=S)NC2CCCCC2)c1Br 5.62 µM [activator, single point], COc1ccc(-c2nsc3c(N4CCCCC4)ncnc23)cc1 0.1 µM [activator, full curve], C(=N\Nc1nc2ccccc2[nH]1)/c1ccccc1 3.16 µM [activator, single point], Cc1nc(-c2coc3cc(O)c(C)cc3c2=O)cs1 5.62 µM [activator, single point], CCc1nnc(NC(=O)CSc2ccc(-c3ccc(C)cc3)nn2)s1 3.16 µM [activator, partial curve], Cc1ccc(-c2noc(C3CCN(S(C)(=O)=O)CC3)n2)o1 5.62 µM [activator, single point], CN1CCc2c(n(CC(O)CN(CCO)CCO)c3ccccc23)C1=O (centres undefined) 1 µM [activator, single point], COc1ccccc1N(C)S(=O)(=O)c1ccc(Cl)c(C(=O)NC2=NCCS2)c1 5.62 µM [activator, single point], C=CCNC(=O)/C=C/c1c(F)cccc1Cl 3.16 µM [activator, partial curve], CNc1nn(-c2cccc(Cl)c2)nc1N 2 µM [activator, partial curve], Cc1csc(NC(=O)c2cccs2)n1 6.31 µM [activator, single point], Cc1ccc(NC(=O)CC2CCCC2)c(Br)c1 3.98 µM [activator, partial curve], COc1ccc(OCCn2c(=O)sc3ccccc32)cc1 3.55 µM [activator, partial curve], Cc1cccc(/N=C/c2sc3ccccc3c2O)n1 5.62 µM [activator, single point], COc1ccc(S(=O)(=O)Nc2cccc(-c3ccc(N4CCCCCC4)nn3)c2)c(OC)c1 3.55 µM [activator, single point], CCOCCCNC(=S)NCCc1ccccc1 5.62 µM [activator, single point], CCOc1cccc(-c2nc3cc(C)ccc3o2)c1 3.55 µM [activator, single point], CC(=O)Nc1cc(-c2ccc(F)cc2)[nH]n1 2.82 µM [activator, partial curve], O=C(NCCc1ccccc1)Nc1cccc(Cl)c1 3.16 µM [activator, single point], Cn1cc(/C=C2\SC(=O)N(c3ccc(O)cc3)C2=O)c2ccccc21 5.62 µM [activator, single point], CCC(=O)Oc1ccc(NC(=O)CSCc2ccccc2)cc1 5.62 µM [activator, single point], Cc1ccc2oc(Nc3nc(-c4ccccc4)cc(=O)[nH]3)nc2c1 5.62 µM [activator, single point], Cc1ccc(NC(=O)c2ccc3c(=O)n4c(nc3c2)CCCCC4)nc1 6.31 µM [activator, single point]

activation, negative = inhibition, inactive:
COc1cccc(-c2cc(C(=O)NCC3CCCO3)c3cc(C)cc(C)c3n2)c1 (centres undefined) 16.4%, CCCCCOc1ccc(C(=O)OCC(=O)Nc2cc(C)c(C)cc2[N+](=O)[O-])cc1 -14.3%, CCOC(=O)C(C)n1cnc2c(nnn2Cc2ccc(C)cc2)c1=O (centres undefined) -0.19%, CCCCC1CCC(C(=O)N(C)CC(=O)Nc2cccc(OC)c2)CC1 (centres undefined) -1.25%, O=C(Nc1sc2c(c1C(=O)NCCCO)CCCC2)c1ccccc1 5.59%, Cc1cccnc1NC(=O)c1ccc(S(=O)(=O)N2CCCCCC2)cc1 4.56%, CCOc1ccc(N=C2NC(=O)S/C2=C\c2ccc(OC)cc2)cc1 -2.81%, Cc1ccc(-c2noc(CCC(=O)NC3CCCc4ccccc43)n2)cc1 (centres undefined) -2.81%, C=CCN([C@@H](CC(C)C)C(=O)OC)S(=O)(=O)N(CC=C)[C@@H](CC(C)C)C(=O)OC -6.22%, CC(=O)Nc1nnc(SCC(=O)N2C(C)CCCC2C)s1 (centres undefined) -2.82%, O=C(O)c1cccc(NC(=S)NC(=O)c2ccncc2)c1 1.95%, COc1ccc(C(=O)CSc2ccc(-c3ccccc3)nn2)cc1 -5.3%, CNC[C@H](NC[C@@H](NCCCc1ccccc1)c1ccccc1)[C@H](C)O 8.86%, COc1ccccc1N1CCN(C(=O)CN(C)S(=O)(=O)c2cc(C)ccc2OC)CC1 -11.1%
